Source: PMC4336329 (PLoS ONE, 2015)
The whole screen tested about 310,000 compounds, of which about 14,000 (4.5%) showed an effect of 50% or more. The effect is printed as a negative number. Some of the results follow. Where a SMILES comes first, the peptide text is derived from it. The star is where a group is joined. OPac = O=C(CO*)c1ccccc1; Bz = O=C(c1ccccc1)*

Target: human ether-à-go-go-related gene (hERG) potassium channel (human, UniProt Q12809)
Test: primary screen, population patch clamp on CHO cells stably expressing hERG
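Note: peak tail current of the secondary pulse compared with the same well before compound.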

Chain of human ether-à-go-go-related gene (hERG) potassium channel (Q12809 whole entry, looked up): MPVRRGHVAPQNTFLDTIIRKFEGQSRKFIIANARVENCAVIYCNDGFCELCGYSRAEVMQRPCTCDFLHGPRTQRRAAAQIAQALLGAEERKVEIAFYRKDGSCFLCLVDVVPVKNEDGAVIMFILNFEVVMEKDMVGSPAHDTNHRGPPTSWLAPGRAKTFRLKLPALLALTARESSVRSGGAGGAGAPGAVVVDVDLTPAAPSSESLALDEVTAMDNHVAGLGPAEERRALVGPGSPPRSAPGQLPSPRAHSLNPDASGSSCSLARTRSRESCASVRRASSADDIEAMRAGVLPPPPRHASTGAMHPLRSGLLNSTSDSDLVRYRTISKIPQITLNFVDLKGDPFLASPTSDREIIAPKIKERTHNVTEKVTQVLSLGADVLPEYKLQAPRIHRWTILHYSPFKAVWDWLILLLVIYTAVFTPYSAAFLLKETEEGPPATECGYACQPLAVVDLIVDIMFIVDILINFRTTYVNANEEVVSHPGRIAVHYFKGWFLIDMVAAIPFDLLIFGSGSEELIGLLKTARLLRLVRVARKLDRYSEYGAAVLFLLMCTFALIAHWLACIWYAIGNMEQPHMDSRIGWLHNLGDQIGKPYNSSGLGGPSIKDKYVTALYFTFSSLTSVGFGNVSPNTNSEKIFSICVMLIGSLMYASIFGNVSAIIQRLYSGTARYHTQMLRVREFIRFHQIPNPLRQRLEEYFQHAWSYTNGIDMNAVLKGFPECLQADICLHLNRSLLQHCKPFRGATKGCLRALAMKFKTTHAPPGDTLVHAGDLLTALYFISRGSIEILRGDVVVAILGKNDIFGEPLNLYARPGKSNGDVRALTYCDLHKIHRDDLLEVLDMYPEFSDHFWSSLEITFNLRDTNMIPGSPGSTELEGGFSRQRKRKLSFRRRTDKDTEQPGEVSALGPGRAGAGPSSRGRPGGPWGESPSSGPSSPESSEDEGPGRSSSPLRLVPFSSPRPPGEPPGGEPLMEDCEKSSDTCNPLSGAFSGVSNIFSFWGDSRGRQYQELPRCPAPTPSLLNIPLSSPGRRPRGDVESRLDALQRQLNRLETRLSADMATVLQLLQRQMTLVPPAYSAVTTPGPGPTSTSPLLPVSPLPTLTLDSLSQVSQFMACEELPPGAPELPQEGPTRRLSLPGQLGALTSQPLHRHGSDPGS

Row | Compound | hERG current change (%, negative = inhibition) at 10uM
1 | CCc1cc(C(=O)c2ccccc2)c(N)s1 | -4.5%
2 | COCc1c(C(=O)N2CCN(S(=O)(=O)c3ccccc3Cl)CC2)oc2ccccc12 | -13.9%
3 | CC(C)(Oc1ccc(CCNC(=O)c2ccc(-c3ccccc3)o2)cc1)C(=O)O | 14%
4 | Cc1cc(C=O)c(C)n1-c1ccc(Cl)c(C(=O)O)c1 | 28.8%
5 | CCO[C@H]1OC(C(=O)N2CCN(Cc3ccccc3)CC2)=C[C@@H](c2ccc(C(F)(F)F)cc2)[C@@H]1CCCO | -11%
6 | O=C(CNC(=O)c1ccc(Cl)cc1)OC1CCOC1=O (centres unmarked) | 2.78%
7 | COc1ccc2[nH]c(=O)c(CNc3cccc(C)c3)cc2c1 | -11.9%
8 | COc1ccc(-n2cnc(N)c2C(=O)c2cccc([N+](=O)[O-])c2)cc1 | -25.4%
9 | COc1cc2c(cc1NC(=O)CSc1nnc(Cc3cccs3)n1C)oc1ccccc12 | 11.5%
10 | Cc1ccc(C(=O)C2OC(=O)C(C)(C)C(=O)C2(C)C)cc1 (centres unmarked) | -9.46%
11 | Cc1ccc(S(=O)(=O)CC(C)N2CCN(C3CCCCC3)CC2)cc1 (centres unmarked) | -40.1%
12 | O=C(CN1CCCCCC1)NCCc1ccc(F)cc1.O=C(O)C(=O)O | -19.7%
13 | O=C1NC(c2ccccc2)Oc2ccccc21 (centres unmarked) | 13.9%
14 | C/C(=N\Nc1nc(-c2ccc(C)cc2C)cs1)c1cc2ccccc2oc1=O | 7.78%
15 | O=C(O)c1cccc(NC(=O)c2ccccc2NC(=O)c2ccccc2F)c1 | 13.6%
16 | CC1=CC(c2ccc(Cl)cc2)n2nc(NS(=O)(=O)c3ccc(C)cc3)nc2N1 (centres unmarked) | -19.7%
17 | O=C(CNC(=O)c1ccccc1)NCC(=O)OCC(=O)c1ccccc1 (Bz-Gly-Gly-OPac) | 14.7%
18 | CSCCC(Nc1ccc(S(=O)(=O)N2CCOCC2)cc1[N+](=O)[O-])C(=O)OCC(=O)NCC(C)C (centres unmarked) | -9.7%
19 | CC(=O)c1c(C)[nH]c(C(=O)Nc2c(C)n(C)n(-c3ccccc3)c2=O)c1C | 14.7%
20 | CC1=CC2=NC(=O)CC(C)(C(=O)N(CC(=O)NC3CCCC3)Cc3ccc(Cl)cc3)N2C=C1 (centres unmarked) | 13.1%
21 | CC(C)(C)S(=O)(=O)c1cnc(-c2ccc(Cl)cc2)nc1N | 16.1%
22 | CCC(C)(C)N1CC(=O)N(Cc2ccccc2)C(c2ccc(OC)cc2)C1=O (centres unmarked) | -26.4%
23 | CN1CC(=O)Nc2ccc([N+](=O)[O-])cc2C1=O | 24.7%
